Test results: PubChem BioAssay AID504332 (National Center for Advancing Translational Sciences (NCATS), 2011)
About 31,000 (8.9%) of roughly 350,000 compounds were called active. The shares of active, inactive and inconclusive entries below differ from those in the screen. The call rests on the fitted dose curve; in most records, active means well fitted inhibition curve with a large enough effect; inconclusive means small, poorly fitted or top-dose-only effect; inactive means no such curve, though single readings can be large or run the other way. A potency beside an inconclusive call is a rough fit, not a confirmed value.

Target: Histone-lysine N-methyltransferase EHMT2 (Homo sapiens) (UniProt Q96KQ7)
Test: qHTS Assay for Inhibitors of Histone Lysine Methyltransferase G9a; further: nearly all actives have a fitted effect of over 75% in size
Details: G9a H3K9 monomethylation, AlphaScreen, 2 h; activity, negative = inhibition: at 59 µM (top of the series) unless noted
How it was run: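 AlphaScreen read-out: biotin-H3K9 peptide (500 nM) methylation by 20 nM enzyme with 20 uM SAM, 2 h at room temperature after 15 min compound preincubation; anti-monomethyl H3K9 antibody plus donor/acceptor beads, 10 min dark.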
On the % scale 0 is the no-effect control and ±100 the full control effect; potency means the concentration at half of the fitted maximal effect; tags describe the fitted curve by direction and shape.

Chain of UniProt Q96KQ7 (Q96KQ7 whole entry, looked up): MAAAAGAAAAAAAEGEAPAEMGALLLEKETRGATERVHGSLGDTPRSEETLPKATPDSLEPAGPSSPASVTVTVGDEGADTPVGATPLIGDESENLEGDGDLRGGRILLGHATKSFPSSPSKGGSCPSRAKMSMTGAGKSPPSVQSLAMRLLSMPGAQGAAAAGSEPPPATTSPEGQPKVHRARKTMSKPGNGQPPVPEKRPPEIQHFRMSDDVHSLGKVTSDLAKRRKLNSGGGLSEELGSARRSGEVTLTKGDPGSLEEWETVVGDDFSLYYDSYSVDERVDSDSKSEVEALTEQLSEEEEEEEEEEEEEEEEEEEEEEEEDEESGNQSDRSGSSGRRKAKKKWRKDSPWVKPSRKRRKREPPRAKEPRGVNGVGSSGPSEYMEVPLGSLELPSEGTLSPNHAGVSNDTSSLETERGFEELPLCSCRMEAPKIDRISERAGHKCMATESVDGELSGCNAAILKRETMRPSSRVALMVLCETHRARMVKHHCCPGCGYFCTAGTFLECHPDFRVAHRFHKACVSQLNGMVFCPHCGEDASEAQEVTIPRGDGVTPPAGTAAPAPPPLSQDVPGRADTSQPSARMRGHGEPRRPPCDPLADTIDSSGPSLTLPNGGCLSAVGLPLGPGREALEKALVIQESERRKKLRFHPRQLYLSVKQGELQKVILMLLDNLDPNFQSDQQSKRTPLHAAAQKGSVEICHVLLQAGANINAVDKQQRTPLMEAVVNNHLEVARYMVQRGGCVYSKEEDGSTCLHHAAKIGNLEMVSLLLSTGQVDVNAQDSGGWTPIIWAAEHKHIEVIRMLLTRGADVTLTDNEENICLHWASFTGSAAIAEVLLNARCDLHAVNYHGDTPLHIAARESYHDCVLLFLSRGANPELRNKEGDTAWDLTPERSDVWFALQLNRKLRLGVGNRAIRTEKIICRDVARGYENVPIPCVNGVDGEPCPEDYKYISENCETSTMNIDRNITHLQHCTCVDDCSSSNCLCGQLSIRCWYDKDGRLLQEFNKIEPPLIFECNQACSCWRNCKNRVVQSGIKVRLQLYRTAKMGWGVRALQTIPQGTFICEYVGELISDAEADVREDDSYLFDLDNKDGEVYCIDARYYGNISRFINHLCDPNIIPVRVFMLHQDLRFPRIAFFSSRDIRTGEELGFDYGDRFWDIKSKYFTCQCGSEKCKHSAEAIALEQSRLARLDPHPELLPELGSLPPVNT

SMILES | Potency | activity, negative = inhibition
CC(C)CC(=O)NC(=S)Nc1ccc(NC(=O)c2cccs2)cc1 | inconclusive: 8.91 µM [inhibitor, partial curve, poor fit] | –
CCCNC(=O)Cc1c(C)oc2ccccc12 | inactive | –
CS(=O)(=O)N1CCN(c2ccc([N+](=O)[O-])c(SCc3ccco3)c2)CC1 | inconclusive: 31.6 µM [inhibitor, partial curve, poor fit] | –
CCOC(=O)C1CCN(C(=O)c2oc3ccc(S(=O)(=O)N4CC(C)CC(C)C4)cc3c2C)CC1 (centres undefined) | active: 14.1 µM | –
Cc1ccc(C(=O)NNC(=O)CSc2nnc(C3CC3)n2C)cc1 | inconclusive: 39.8 µM [inhibitor, single point] | –
COc1ccc(-c2noc(CN(C(=O)C(C)(C)C)C(C)C)n2)cc1 | inconclusive: 39.8 µM [inhibitor, partial curve] | –
N/C(=N\OC(=O)CCC1CCCC1)c1ccc([N+](=O)[O-])cc1 | inconclusive: 89.1 µM [inhibitor, single point] | –
CCn1c(/C=C/N(C)c2ccccc2)[n+](CC)c2ccc(Cl)cc21 | inconclusive: 11.2 µM [inhibitor, partial curve, poor fit] | –
NC(=O)c1cc([N+](=O)[O-])cc2c1C=Cc1ccccc1O2 | inconclusive: 8.91 µM [inhibitor, full curve] | –
C=CCn1c(Cc2csc(N)n2)nnc1SCC(=O)Nc1ccc(C(=O)OCC)cc1 | inactive | –
O=C(c1ccccc1)c1ccc2nc(Nc3cc(Cl)ccc3O)c3nncn3c2c1 | inconclusive: 20 µM [inhibitor, partial curve, poor fit] | –
CCNC(=S)N/N=C1\CCCCc2ccccc21 | inconclusive: 25.1 µM [inhibitor, single point] | –
O=C(CSc1n[nH]c(-c2ccncc2)n1)Nc1ccc(Cl)cc1 | inconclusive: 89.1 µM [inhibitor, single point] | –
CCS(=O)(=O)Nc1cccc(C2=NN(C(=O)c3ccco3)C(c3ccco3)C2)c1 (centres undefined) | inconclusive: 89.1 µM [inhibitor, single point] | –
CCCC(=O)Nc1c2c(nn1-c1ccc([N+](=O)[O-])cc1)CS(=O)(=O)C2 | inactive | –
Cc1cc(C)n(CCC(=O)N=Nc2c(O)[nH]c3ccccc23)n1 | inconclusive: 25.1 µM [inhibitor, single point] | –
CCOCCn1c(N2CCCC2)nc2c1c(=O)[nH]c(=O)n2C | – | inconclusive: -62.1% [inhibitor] [at 0.501 µM]
COc1ccc(C(=O)NC(=S)Nc2ccc3c(c2)Cc2ccccc2-3)cc1 | inconclusive: 44.7 µM [inhibitor, partial curve, poor fit] | –
Nn1c(-c2ccccc2)nc2cc(Cl)ccc2c1=O | active: 44.7 µM | –
Cc1ccc(C(=O)NC(c2ccccc2)C(Cl)Cl)cc1 (centres undefined) | active: 50.1 µM | –
COc1cc2nc(=S)n3[nH]c(CCn4c(C)nc5ccccc54)nc3c2cc1OC | inconclusive: 1.41 µM [inhibitor, full curve, poor fit] | –
COc1cc(C(=O)NC2CCCCC2)ccc1OCc1ccc(Cl)cc1Cl | inconclusive: 39.8 µM [inhibitor, partial curve, poor fit] | –
O=C1NN(c2ccccc2)C(=O)/C1=C\c1coc2ccc(O)cc2c1=O | – | inactive: 14.1% [at 12.7 µM]

SMILES | Potency | activity, negative = inhibition
Cc1ccc(S(=O)(=O)NC(Cc2ccccc2)C(=O)O)cc1 (centres undefined) | inactive | –
CCN(CCCNC(=O)C1CCC(=O)N1Cc1ccc(F)cc1)c1cccc(C)c1 (centres undefined) | – | inconclusive: -84.7% [inhibitor]
O=C(CCn1cnc2ccccc2c1=O)NCc1ccccc1 | inconclusive: 25.1 µM [inhibitor, partial curve, poor fit] | –
O=C(c1ccc(CN2CCc3ccccc3C2)cc1)N1CCN(c2ccccc2)CC1 | inconclusive: 11.2 µM [inhibitor, partial curve, poor fit] | –
COC(=O)Cc1c(C)c2ccc(OC3CCCCC3=O)c(C)c2oc1=O (centres undefined) | inactive | –
O=C(CCCOC(=O)c1ccc(O)cc1O)c1ccc(F)cc1 | inconclusive: 70.8 µM [inhibitor, partial curve, poor fit] | –
NC(=O)C1=C[C@@H](c2ccccc2)C[C@@H](OCc2ccc(CO)cc2)O1 | – | inconclusive: -82.4% [inhibitor]
Cc1ccc(S(=O)(=O)n2nc(-c3ccco3)nc2SCc2ccccc2)cc1 | – | inconclusive: -91.7% [inhibitor]
O=C(O)c1cccc(Nc2ccc([N+](=O)[O-])cn2)c1 | inconclusive: 79.4 µM [inhibitor, single point] | –
S=C(Nc1cccc(Br)c1)N1CCn2cccc2C1c1cccnc1 (centres undefined) | active: 50.1 µM | –
Cc1cc2c(c(=O)o1)C(c1cccs1)C(C#N)=C(N)O2 (centres undefined) | inconclusive: 6.31 µM [inhibitor, full curve] | –
CC1CCN(S(=O)(=O)c2ccc3ncn(CC(=O)N(C)Cc4ccccc4)c(=O)c3c2)CC1 | inactive | –
COC(=O)c1cc(OC)c(OC)cc1NC(=O)C(C)c1ccc([N+](=O)[O-])cc1 (centres undefined) | inconclusive: 39.8 µM [inhibitor, single point] | –
COc1ccc(NC(=O)N2CCN(C(=O)C(Cc3ccc(F)cc3)NC(C)=O)CC2)cc1 (centres undefined) | inactive | –
O=C(O)C1C2C=CC(O2)C1C(=O)NCCc1cccc(Cl)c1 (centres undefined) | inconclusive: 28.2 µM [inhibitor, partial curve] | –
O=S(=O)(c1ccc2[nH]c3c(c2c1)CCCCC3)N1CCN(c2ccccc2)CC1 | inactive | –
COc1ccc(NC(=O)N/C=C/c2ccccc2)cc1 | inconclusive: 79.4 µM [inhibitor, partial curve, poor fit] | –
COC(=O)c1sccc1NC(=S)Nc1ccc(C)cc1 | inconclusive: 44.7 µM [inhibitor, partial curve] | –
Cc1ccc(-c2csc(N)n2)s1 | inconclusive: 28.2 µM [inhibitor, single point] | –
CCN1C=C(Cc2ccc(OC)cc2)C2=C(C1)C(c1ccc(OC)cc1)C(C#N)=C(N)O2 (centres undefined) | inconclusive: 12.6 µM [inhibitor, partial curve, poor fit] | –
COc1cc(OC)c(N(C)C(=O)c2nn(C)c3c2CSc2ccccc2-3)cc1Cl | inconclusive: 39.8 µM [inhibitor, partial curve, poor fit] | –
C=C(C)C1CCC2(C(=O)O)CCC3(C)C(CCC4C5(C)C(C=O)C(O)C(C)(C)C5CCC43C)C12 (centres undefined) | inactive | –
CCOC(=O)CNC(=O)C12CC3CC(CC(C3)C1)C2 | – | inactive: 34.5% [at 12.7 µM]

SMILES | Potency | activity, negative = inhibition
Cc1cccc(C)c1NC(=O)c1oc2c(c1C)-c1nn(Cc3ccccc3)cc1CC2 | inactive | –
CCCc1nnc2n1N=C(c1ccc(-c3cc(Cl)ccc3Cl)o1)CS2 | inconclusive: 22.4 µM [inhibitor, single point] | –
O=C(CSc1ncn[nH]1)c1ccc(OC(F)F)cc1 | active: 25.1 µM | –
O=C(CCC(=O)N1CCOCC1)Nc1nnc(C2CCCCC2)s1 | inconclusive: 89.1 µM [inhibitor, single point] | –
COc1ccc(OC)c(/C=N/n2c(COc3ccccc3)n[nH]c2=S)c1 | inconclusive: 1.58 µM [inhibitor, full curve, poor fit] | –
Cc1ccc(OCC(=O)NCCCNC(=O)c2ccco2)cc1 | inactive | –
Clc1ccc2c(N/N=C/c3ccc(Br)cc3)ccnc2c1 | inconclusive: 89.1 µM [inhibitor, single point] | –
CC(NC(=O)Cc1ccc(-c2ccccc2)cc1)c1ccccc1 (centres undefined) | inconclusive: 6.31 µM [inhibitor, single point] | –
COc1ccc(OC)c(C(O)c2coc3ccc(O)c(CN(C)C)c23)c1 (centres undefined) | inconclusive: 11.2 µM [inhibitor, single point] | –
Cc1cc(CNC(=O)CC2C(=O)NCCN2Cc2ccccc2)nn1C (centres undefined) | active: 44.7 µM | –
Cc1[nH]c2ccccc2c1/C=N/Nc1nc(N2CCCCC2)nc(N2CCCCC2)n1 | inconclusive: 39.8 µM [inhibitor, single point] | –
Cc1cc(O)c(C(C)C)cc1N=Cc1ccccc1O | active: 5.62 µM | –
CCOc1ccccc1NC(=O)c1sc(-n2nc(C)c(CCC(C)C)c2C)nc1C | inconclusive: 39.8 µM [inhibitor, partial curve, poor fit] | –
CCC[n+]1cn(/C(C(=S)Nc2cccc(Cl)c2C)=C(/[O-])c2ccc(OC)c(OC)c2)c2ccccc21 | active: 39.8 µM | –
Cc1cccc(NC(=O)C2CCCN(S(=O)(=O)c3cccc4nsnc34)C2)n1 (centres undefined) | inactive | –
C#CCN[C@@H]1CCc2ccccc21 | – | inactive: -26.9% [at 12.7 µM]
Cc1nn(-c2ccccc2)c(C)c1C(=O)Nc1ccc(N2CCOCC2)cc1 | inconclusive: 79.4 µM [inhibitor, single point] | –
Cn1c(SCC(=O)Nc2sccc2C#N)nnc1-c1ccccc1 | inconclusive: 31.6 µM [inhibitor, single point] | –
O=C(Nc1cccc(Cl)c1)Nc1ccccc1OCc1cc(=O)n2ccccc2n1 | inactive | –
Nn1cnnc1SCC(=O)N1CCc2ccccc2C1 | inconclusive: 3.98 µM [inhibitor, single point] | –
Cc1cc2c(c3oc(=O)c4ccccc4c13)CN(Cc1ccc(F)cc1)CO2 | inconclusive: 6.31 µM [inhibitor, partial curve, poor fit] | –
COCCCNC(=O)CCC(=O)N1Cc2ccccc2Oc2ncccc21 | inactive | –
Cc1c(Cc2ccc3c(c2)OCO3)sc(NC(=O)C2CC2)c1C(N)=O | active: 3.55 µM | –
